Experimental data taken from the supplement of paper PMC10502849.
Where “and” joins values, the source holds several entries; their conditions need not be identical. Equal entries are not always repeated. Structures can show the parent of a compound that is named as a salt. The list shows a part of the results. Single values are uncertain, as repeats are few or missing.

Tests used:
[1] = tested on: H9 teratoma-derived LAM model cells, TSC2-/-; test: percent SyTOX+ dead cells; higher = more cytotoxic; conditions: 5 µM, treatment time 72 h, culture: 3D hyaluronic acid hydrogel
[2] = tested on: H9 teratoma-derived LAM model cells, WT; test: percent SyTOX+ dead cells; higher = more cytotoxic; conditions: 5 µM, treatment time 72 h, culture: 3D hyaluronic acid hydrogel, genotype: WT
[3] = tested on: H9 teratoma-derived LAM model cells, TSC2-/-; test: percent of cells invaded past median invasion distance of vehicle control; LAM is lymphangioleiomyomatosis; the cells come from teratomas of the human stem cell line H9; higher = more invasion; extreme values may be limits of the assay; conditions: 5 µM, treatment time 72 h, culture: 3D hyaluronic acid hydrogel
[4] = tested on: H9 teratoma-derived LAM model cells, WT; test: as above; conditions: 5 µM, treatment time 72 h, culture: 3D hyaluronic acid hydrogel, genotype: WT
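Throughout, for percent SyTOX+ dead cells: cells seeded atop a hyaluronic acid gel crosslinked via MMP-cleavable peptides, containing vitronectin peptides and methylcellulose, imaged live by high-content microscopy with automated analysis, one technical replicate per compound.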
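Throughout, for percent of cells invaded past median invasion distance of vehicle control: live cells imaged by high content microscopy and scored with in-house automated image analysis, one technical replicate per compound in each genotype and rapamycin condition.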

| Compound | percent SyTOX+ dead cells ([1]; rapamycin 0 nM) | percent SyTOX+ dead cells ([1]; rapamycin 20 nM) | percent SyTOX+ dead cells ([2]; rapamycin 0 nM) | percent SyTOX+ dead cells ([2]; rapamycin 20 nM) | percent ([3]; rapamycin 0 nM) | percent ([3]; rapamycin 20 nM) [%] | percent ([4]; rapamycin 0 nM) [%] | percent ([4]; rapamycin 20 nM) |
| --- | --- | --- | --- | --- | --- | --- | --- | --- |
| CC(C)N(CCCNC(=O)Nc1ccc(C(C)(C)C)cc1)C[C@H]1O[C@@H](n2ccc3c(N)ncnc32)[C@H](O)[C@@H]1O | 11% | 14% | 17.6% | 18.5% | 61.5% | 57 | 66.4 | 52.1% |
| CCCCc1nc2cc(/C=C/C(=O)NO)ccc2n1CCN(CC)CC [SB939, SB-939, Pracinostat] | 18.5% | 17.1% | 22.6% | 3.9% | 11% | 6.45 | 0.75 | 7.14% |
| O=C(NC(NC(=S)Nc1ccc(F)c([N+](=O)[O-])c1)C(Cl)(Cl)Cl)C(c1ccccc1)c1ccccc1 (stereo not drawn) | 58.1% | 62.5% | 62.2% | 56.1% | 0.27% | 10.6 | 0 | 1.31% |
| COc1cc(Nc2ncc(F)c(Nc3ccc4c(n3)NC(=O)C(C)(C)O4)n2)cc(OC)c1OC | 55.9% | 41.2% | 56.2% | 51.2% | 7.09% | 22.1 | 10.9 | 0.48% |
| C#CC[C@H](c1nc2cc(Cl)ccc2c(=O)n1Nc1ccccc1)N(CCCN)C(=O)c1cccc(Cl)c1F | 22.2% | 20% | 4% | 2.36% | 87.9% | 49.6 | 81.2 | 75.6% |
| O=C1NC(=O)/C(=C/c2ccc3nccc(-c4ccncc4)c3c2)S1 | 25% | 17.5% | 36% | 41% | 87.5% | 4.12 | 20 | 1.05% |
| N#C/C(=C\c1ccc(O)c(O)c1)C(=O)Nc1ccccc1 | 7.87% | 21.8% | 15.4% | 15.6% | 46.6% | 7.41 | 39.6 | 14.4% |
| Cc1cccc(C)c1OCC(=O)N[C@@H](Cc1ccccc1)[C@@H](O)C[C@H](Cc1ccccc1)NC(=O)[C@H](C(C)C)N1CCCNC1=O [Lopinavir, ABT-378] | 15.6% | 7.71% | 4.91% | 3.68% | 66.3% | 18.8 | 56.9 | 75% |
| O=C(O)[C@]1(Cc2cccc(Nc3nccs3)n2)CC[C@@H](Oc2cccc(Cl)c2F)CC1 | 18.5% | 10.5% | 38% | 25.3% | 54% | 46.2 | 20.7 | 12.6% |
| Oc1cccc(-c2nc(N3CCOCC3)c3sccc3n2)c1 [PI3-Kinase a Inhibitor 2] | 16.4% | 8.67% | 31% | 29.9% | 18.4% | 45.1 | 12.7 | 21.7% |
| Nc1nccc(-c2c(-c3ccc(F)cc3)ncn2C2CCCCC2)n1 | 13.6% | 8.16% | 22.9% | 17.2% | 15.4% | 6.8 | 5.08 | 16.6% |
| Nc1nc(Nc2ccc(S(N)(=O)=O)cc2)nn1C(=O)c1c(F)cccc1F | 12.4% | 13.3% | 10.9% | 17.4% | 7.59% | 17.1 | 0.91 | 11.8% |
| C[C@]1(c2nc3c(C(N)=O)cccc3[nH]2)CCCN1 | 14.1% | 12.1% | 12.1% | 13.7% | 24.9% | 26.7 | 64.2 | 68.4% |
| CN(C)Cc1cccc(N=C(c2ccccc2)c2c(O)[nH]c3cc(C(=O)N(C)C)ccc23)c1 | 10% | 4.76% | 22.1% | 13.3% | 73.2% | 69 | 42.9 | 30.1% |
| CNC(=O)c1ccccc1Sc1ccc2c(/C=C/c3ccccn3)n[nH]c2c1 | 19.4% | 18.9% | 16.9% | 6.02% | 6.9% | 42.8 | 4.24 | 5.26% |
| CCN1CCN(Cc2ccc(Nc3ncc(F)c(-c4cc(F)c5nc(C)n(C(C)C)c5c4)n3)nc2)CC1 | 5.14% | 3.45% | 11.9% | 10.9% | 76.7% | 77.8 | 58.8 | 30.4% |
| Cc1[nH]c(/C=C2\C(=O)Nc3cc(-c4ccccc4)ccc32)c(C)c1CCC(=O)O | 89.3% | 76.1% | 90.9% | 75.9% | 15.4% | 10.6 | 4.57 | 6.28% |
| S=C(S)N1CCCC1 [Pyrrolidinedithiocarbamate ammonium] | 75.2% | 85.9% | 72.2% | 75% | 15.7% | 7.41 | 14.7 | 13.2% |
| CN(C)c1cc2c(Nc3ccc4c(cnn4Cc4ccccc4)c3)ncnc2cn1 | 11% | 13.6% | 12.6% | 15.1% | 52.2% | 36.1 | 27.6 | 44.8% |
| C=CCn1c(=O)c2cnc(Nc3ccc(N4CCN(C)CC4)cc3)nc2n1-c1cccc(C(C)(C)O)n1 | 23.6% | 22.5% | 32.4% | 27% | 57.6% | 36 | 8.45 | 11.7% |
| CO[C@H]1C[C@@H]2CC[C@@H](C)[C@@](O)(O2)C(=O)C(=O)N2CCCC[C@H]2C(=O)O[C@H]([C@H](C)C[C@@H]2CC[C@@H](OC(=O)C(C)(CO)CO)[C@H](OC)C2)CC(=O)[C@H](C)/C=C(\C)[C@@H](O)[C@@H](OC)C(=O)[C@H](C)C[C@H](C)/C=C/C=C/C=C/1C [Temsirolimus, CCI-779, Torisel] | 14.4% | 12.4% | 12.1% | 15.1% | 22.6% | 37.1 | 3.45 | 30.1% |
| COc1ccccc1S(=O)(=O)Nc1ccc2c(c1)CN(C)C(=O)N2 | 7.18% | 8.86% | 10.3% | 13.3% | 72.2% | 69.9 | 59 | 54.3% |
| Cc1cc(C=C2C(=O)C=CC2=O)cc(C)c1O | 56.8% | 55.8% | 52.3% | 34.7% | 0.9% | 0 | 0 | 0% |

| Compound | percent SyTOX+ dead cells ([1]; rapamycin 0 nM) | percent SyTOX+ dead cells ([1]; rapamycin 20 nM) | percent SyTOX+ dead cells ([2]; rapamycin 0 nM) | percent SyTOX+ dead cells ([2]; rapamycin 20 nM) | percent ([3]; rapamycin 0 nM) | percent ([3]; rapamycin 20 nM) [%] | percent ([4]; rapamycin 0 nM) [%] | percent ([4]; rapamycin 20 nM) |
| --- | --- | --- | --- | --- | --- | --- | --- | --- |
| Cn1cccc1/C=C1\C(=O)NC(=O)c2ccccc21 | 3.32% | 11.6% | 9.72% | 11.5% | 90% | 39.3 | 38.9 | 41.2% |
| Nc1ncnc2nc(-c3ccc(N4CCOCC4)nc3)cc(-c3cccc(Br)c3)c12 [ABT-702 dihydrochloride] | 10.7% | 14.2% | 17.4% | 14% | 24.6% | 6.69 | 37.9 | 39% |
| COc1cc2c(NC3CCN(C4CCCCC4)CC3)nc(N3CCCN(C(C)C)CC3)nc2cc1OCCCN1CCCCC1 | 14.1% | 11.6% | 12% | 18.2% | 59.1% | 52.2 | 61.1 | 68.9% |
| O=C1Nc2ccc(I)cc2/C1=C/c1cc(Br)c(O)c(Br)c1 | 18.4% | 11.4% | 25.7% | 30% | 20.2% | 19.3 | 9.17 | 6.67% |
| COc1ccc(COc2ccc(Cc3cnc(N)nc3N)cc2OC)cc1 | 7.1% | 9.83% | 26.9% | 16.2% | 65% | 35.3 | 5.13 | 34.2% |
| CO[C@H]1C[C@@H]2CC[C@@H](C)[C@@](O)(O2)C(=O)C(=O)N2CCCC[C@H]2C(=O)O[C@H]([C@H](C)C[C@@H]2CC[C@@H](O)[C@H](OC)C2)CC(=O)[C@H](C)/C=C(\C)[C@@H](O)[C@@H](OC)C(=O)[C@H](C)C[C@H](C)/C=C/C=C/C=C/1C [Rapamycin, Sirolimus, Rapamune] | 5.68% | 12.5% | 12.1% | 10% | 31.8% | 14.8 | 20.5 | 24.4% |
| CCc1cc2c(cc1N1CCC(N3CCOCC3)CC1)C(C)(C)c1[nH]c3cc(C#N)ccc3c1C2=O | 2.51% | 4.93% | 10.1% | 5.63% | 56.3% | 34.5 | 31.4 | 11.9% |
| CCOC(=O)c1c2c3c(cccc3[nH]c1=O)C(=O)c1ccccc1-2 | 8.48% | 6.13% | 14.2% | 7.6% | 79.5% | 34.4 | 61 | 29.7% |
| FC(F)c1nc2ccccc2n1-c1nc(N2CCOCC2)nc(N2CCOCC2)n1 | 21.8% | 22.7% | 25.9% | 27.1% | 10.9% | 17.3 | 8.04 | 10.2% |
| Cc1nc2c(O)cccc2c(=O)[nH]1 | 16.7% | 8.37% | 10.5% | 21% | 62.8% | 40.6 | 32.6 | 29.6% |
| N#Cc1ccc(C(c2ccc(C#N)cc2)n2cncn2)cc1 | 16% | 12.5% | 10.4% | 11.5% | 54.7% | 29.7 | 47 | 38.3% |
| CC(C)(F)C[C@H](N[C@@H](c1ccc(-c2ccc(S(C)(=O)=O)cc2)cc1)C(F)(F)F)C(=O)NC1(C#N)CC1 [Odanacatib, MK-0822] | 12.3% | 12.8% | 5.79% | 9.88% | 55.6% | 34.3 | 72.3 | 63% |
| C[C@@H](Oc1cc(-n2cnc3ccc(CN4CCN(C)CC4)cc32)sc1C(N)=O)c1ccccc1C(F)(F)F | 31.8% | 16.6% | 30.6% | 17.8% | 29.8% | 29.5 | 30 | 23.9% |
| COC(=O)CNC(=O)C(=O)OC [DMOG, Dimethyloxallyl Glycine] | 6.61% | 7.62% | 7.74% | 1.52% | 88.5% | 34.1 | 49 | 50.5% |
| CCN1/C(=C/C(C)=O)Sc2ccc(OC)cc21 | 4.38% | 5.22% | 6.87% | 6.58% | 50.6% | 99.6 | 31.8 | 81.2% |
| CC1(C)NC(=O)N(c2ccc([N+](=O)[O-])c(C(F)(F)F)c2)C1=O | 12.2% | 9.54% | 10.8% | 9.14% | 48.4% | 41.5 | 54.5 | 48.1% |
| Cn1cc(C(=O)Cc2ccccc2)cc1/C=C/C(=O)NO [APHA-8, APHA Compound 8] | 13.8% | 19.9% | 20.4% | 14.8% | 58.5% | 43.5 | 29.2 | 35.6% |
| CCc1cnn2c(NCc3ccc[n+]([O-])c3)cc(N3CCCC[C@H]3CCO)nc12 | 28.1% | 7.64% | 29.1% | 17.8% | 4.68% | 10.2 | 2.95 | 2.72% |
| Clc1ccc(C(c2ccc(Cl)cc2)n2cc[n+](CC(OCc3ccc(Cl)cc3Cl)c3ccc(Cl)cc3Cl)c2)cc1 (stereo not drawn) | 47.4% | 20.9% | 42.3% | 26.7% | 34.6% | 7.69 | 1.92 | 0% |
| Cc1ccccc1-n1c(Cn2nc(-c3cccc(O)c3)c3c(N)ncnc32)nc2cccc(C)c2c1=O | 18.5% and 6.25% | 15.3% and 5.16% | 16.9% and 14% | 17.3% and 13% | 21.2% and 41.9% |  |  | 25.5% and 15.3% |
| CCN1CCN(Cc2ccc(-c3cc4c(N[C@H](C)c5ccccc5)ncnc4[nH]3)cc2)CC1 | 9.09% | 7.28% | 49.5% | 43.6% | 46% | 23.2 | 4.64 | 2.56% |
| CNc1nc(-c2ccc3c(N)n[nH]c3c2)cc(N2C[C@@H](C(=O)NC3CCCCC3)CC[C@H]2C)n1 | 3.46% | 3.94% | 18.1% | 24.5% | 54.5% | 57.7 | 30.9 | 10.6% |
